Data on 93 sequences can be found in article PMC10726135.

The other results are listed elsewhere or left out. At the low end of the ranking, values are background and their order means little. The protein was read in a cell extract, so binding may be indirect.

The experiment deals with T1, HNF4alpha2 (COS-7 nuclear extract) (UniProt P41235).
T1 sequence: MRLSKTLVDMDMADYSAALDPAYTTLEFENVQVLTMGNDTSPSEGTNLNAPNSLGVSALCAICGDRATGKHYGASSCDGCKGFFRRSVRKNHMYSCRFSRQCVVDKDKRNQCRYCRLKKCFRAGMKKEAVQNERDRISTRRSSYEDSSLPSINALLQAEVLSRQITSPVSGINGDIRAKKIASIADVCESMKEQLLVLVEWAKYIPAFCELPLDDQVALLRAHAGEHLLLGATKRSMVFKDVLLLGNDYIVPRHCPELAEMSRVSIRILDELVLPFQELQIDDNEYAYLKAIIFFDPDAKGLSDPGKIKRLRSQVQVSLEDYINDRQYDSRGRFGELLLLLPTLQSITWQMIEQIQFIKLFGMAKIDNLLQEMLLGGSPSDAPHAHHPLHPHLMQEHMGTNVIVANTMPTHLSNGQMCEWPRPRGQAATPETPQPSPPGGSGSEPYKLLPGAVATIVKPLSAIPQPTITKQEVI
As to the kind of experiment: protein-binding microarray. The note with it: COS-7 nuclear extract on double-stranded Agilent 4x180k PBM; binding buffer, salt, pH and temperature not given; high values mean tight binding; double strand, one strand shown; sequences stand for … in …GCCTAGGGAGATTAGAGTATCGGTCGA
Take GCAATGGCTGGGTCTAAGGGCAAGTGACTG: the binding signal (log2 normalized intensity) amounted to 0.0544. Turning to ATGGAAGGACCTTGGACTGAAGACTGGAAC, the binding signal (log2 normalized intensity) is 2.09.

On to GCTCTGATACTTTCTGTATCTAATCTCAGA, for which the binding signal (log2 normalized intensity) is -0.452. With TCTAAACCTAGCAGCCTGCCACCCAACCTG the figure was -1.14; with TGACAAGCAGCCTCAGTGGCTCACAAATGG, -1.15; with GTAAAGCCACTGCCTAGATAAAAGGGTCTT, -1.14. As for CAAACAGCTTAGGGTTCAAACTCCAGCTCT, the figure is 3.29; as for GATTCACAGCAGGCTCACAAGATTGCATTC, -1.15; as for AACACTGGATAAAGTCCATATTCTTTGTTT, 2.04.

On to CTCGGAGACACACTCAGGCACTGGGATCCA, for which the binding signal (log2 normalized intensity) was -1.11. As for GAGTAAGCAATCAGATATCCATTTATCTCA, the figure is -1.06.

For GTCATTGGTATCCACAGAGTTCATAATTTT, the binding signal (log2 normalized intensity) stood at 0.879. With AAAGTGTCAAGTAGAGACCTGTCTTCCTGG the figure was 0.537.

With ATTTGGACTTTTACTCTTAGAGATAATGGG, the binding signal (log2 normalized intensity) was determined as 2.13. As for AGTACAGGGCGTCCTTGATAAGCAAGATGA, the figure is -1.17; as for TGGACACACGAATAATGGAGCTGATGTCCT, 1.34.

ACAAGTGTACAAAGGTCACTTCTGTTCATT: the binding signal (log2 normalized intensity) worked out at 5.87. TAGCACTTTGGACCTCCACTTTGGAGGGGG: the binding signal (log2 normalized intensity) was determined as 1.7. With AGCCACTCATTCTTGGAATGCATTGCAAGT the figure was 0.284; with GCAGAAGAATGGATGAGCTAATCAGAGCAT, -1.16. In the case of TTCTCATCCGCTAATGACACCAGGGAACAC, the binding signal (log2 normalized intensity) worked out at 0.493. Turning to TGAATTCTGCAGCAGATGGCCAGCCTTTGG, the binding signal (log2 normalized intensity) was -0.936. On to CACTGGCTGCTGCTCAGGAGACCGAGCAGC, for which the binding signal (log2 normalized intensity) was -1.02. With TGAGCAGGCAGTGTCACAGAAATCATGTAG the figure was 0.722; with CAACCCTCCTCCCTTTGGCCATGAAAGTAT, 2.04; with ATCAGAGCTGGAGGAGACCTTTGGATATCA, 2.97.

On to AGATATGAGGCCAGTTTTCCCAAAGGAGCT, for which the binding signal (log2 normalized intensity) is -1.07. As for CCTCTGAGGTGTTAACCTGATGCTGAAGTC, the figure is 0.962; as for GCCCTGTTTAGGAGGAAATAGAGAGCAGAC, -0.746. Regarding GAAAGATAAAAGGCCATAGGGAAAGATAAA, the binding signal (log2 normalized intensity) is -1.13. For ATGAGATACCCATTCACATGACCTTTGTCC, the binding signal (log2 normalized intensity) is 8.34. As for TCAAGGGGAAGAAATCTAAGATTTATAAAG, the figure is -1.06; as for CACTTAGCACAAGTGACTATTCTGGTTTGC, 0.921.

For the sequence CAGCAGCAGGCAGGGACTTTGGCCCACGGT, the binding signal (log2 normalized intensity) came out at 2.6.

Turning to GCAGCGGGTCAATTAGCTTGAGCGAGACAG, the binding signal (log2 normalized intensity) is -1.05. Consider GGTTCAAAGGTCATTTCTGCTTGCAACCAA, for which the binding signal (log2 normalized intensity) was 5.52. With GCATTGAAAGCACTAATTAACTGAGCCTCA the figure was -1.13; with GTGACTGAGCAGAGATTTGACCTAAGTCTG, 0.817. Consider CCATGAGCTGGCCTCACTAAGTCCTGCTTA, for which the binding signal (log2 normalized intensity) was -1.15. With TGGTAAATAAAGGAACTTACGAAGATAAAT the figure was -1.13; with CCTTTGTACCAAAATCACACTGGGAATTGG, -0.799; with GTGTGCGTTTCCCAGATATCTCTGGTAAAC, -1.15. As for CTTGCTTTCTGCCCAGGGAGGTGCCTGTGC, the figure is 1.04. As for AGGCTTTGAGTCAACACACCTGTGGGTAAT, the figure is 0.341. Turning to CTAACAAAGCTCAGGGCAAAGACTCAAATC, the binding signal (log2 normalized intensity) was -1.03. With GGTAGATAAGGGAGTTTCAGAGGACTGCCC the figure was -1.12; with CAGCTTTGACGCCACCTGAAGGCAGGTGTG, -1.05; with ACCTATTCTCTCTGAGGGCTACTATCTGAA, -1.21. Consider CACTCCTCCTCCTTCCCTCCTGCTCACTTA, for which the binding signal (log2 normalized intensity) came out at 1.33. As for AATGCACTGGTGACTTTAAGTTGACTCCAA, the figure is -1.16. As for CCTCAGTGGCTCACAAATGGAGTTTGGTTT, the figure is 2.31; as for ATACCAGAAATTCCATGATTTTCTGGAGGA, -1.13; as for TACATACCCAAGTTCCCTCTCAGGAATGTG, 0.152.

As for TGAACCAATCTTGAGATAAGTACACAAAAG, the binding signal (log2 normalized intensity) was -0.858. As for GGAATGTGCTTGGACCTGCTCTGTTTTCTT, the figure is 1.55; as for AATAAATGTGTTTCATCAGTCCAATTCACA, 0.947.

On to CAACTCTAAGGGGGAAAGTCCACGTGAGAG, for which the binding signal (log2 normalized intensity) is 2.69. With TGAGTGGAATATGAGGTCAGGGTTCATCTG the figure was 3.43; with CTTGTGTAATCCTGCAACAGCCCCATGAGA, 2.19; with GATATTTCCCCTTTGACTTAGGATCAGTAG, 1.64. As for ATCAAATTAACACAGCTCTAGAGGGCTGCT, the figure is -1.13; as for ATATCCCTGAGAGGCCAGTTTGACCTTTGC, 8.38; as for GGATAAAAGGGGAAAAGGTCAAATACCAAA, 1.79. With GCAAAGCTGCTATGAGCTATGATTGCGCCA the figure was -1.08; with TGAGGAGCCAAGTTTTGCAACATACTGAAA, -0.75. As for CTTATCACATTCTGCTCTTGAACCAGAGAA, the binding signal (log2 normalized intensity) was -0.621.

Take CAGTCCCTATAGCCTCACTTGCTGATAAGG: the binding signal (log2 normalized intensity) is -0.63. For the sequence TGTGTGCTGCGCGGGGCCTCCCAGTGGTAT, the binding signal (log2 normalized intensity) came out at 0.376. As for GAGCCTGGACATTTGCCACCAATGCCTCTA, the figure is -1.14.

On to TACCGGCAGAGGCTGCAGAGGTTTCGCAAG, for which the binding signal (log2 normalized intensity) was -1.13. As for AACATAATATTTAGCTTTCAGTGACTGCTC, the figure is -1.03; as for TGTCCAGCACACCTTTTTTTCATGCAAATT, 0.631; as for TTTCTGCCTGTGATGTCCTTCCCTCAGCAA, -0.881. With TAGTTGACCTTTGAGAACCTCCCATCAGCT, the binding signal (log2 normalized intensity) stood at 3.12. As for AACCCAGGGTCACAAGGATCCCATTCATGT, the figure is -0.884; as for GACTGACTTAACCCTTGCCTGGCATGGCCT, -0.487; as for TGTTACCACCCAGACCAGTAACCTAAGTCA, -1.08.

In the case of CAAAGTCCTGGAAGAAACCCATTTGTTAGT, the binding signal (log2 normalized intensity) amounted to 1.24. For the sequence CAGGGAGCCCTTATATCCACATGGGTCCAA, the binding signal (log2 normalized intensity) turned out to be 2.29. As to CGGGCAGCCTGTGGCCAGGCTGCGTTTCAA, the binding signal (log2 normalized intensity) is -0.657. Regarding TCCTTGACTTCAAAGGCATTTCTGGACTTG, the binding signal (log2 normalized intensity) came out at 2.89. With ACAGGTGCTCTTTATCAGCACCAAGAACAA the figure was -1.12; with ATCATTGCCTCTGGTATGCAGAAAAGCAAG, -0.771; with GCTGACCTTTGGTCTAAACCTACTTAGATC, 4.25. With TCACAAGCATGGGCCTCCTCTTCTTTGGGC the figure was 0.308. As for CTTCAAGATGGCATCACTCTTGCCACAGAA, the figure is -1.08. Regarding ATTGTTTACTGGTGAACATAAATCGCAAAT, the binding signal (log2 normalized intensity) was -1.03. With TGAGACACGTGTGCCATGCCAAAGAAGCAA the figure was -1.07; with ATCTCGGGGCTGGCATGTCTCTGGTCAGGG, 1.16; with AACACGGGCGAAAAAGACGCGGTCTCAGTT, -1.18.

With GCGAAGCCGGCGGCGGAATGCTTGTCTAGT, the binding signal (log2 normalized intensity) is -1.31. As to CAAGTGACTGATAAGGCTAAGTGGAGGATT, the binding signal (log2 normalized intensity) is -1.11. Turning to AGAATGCAGAAACAAATACAGACACACCTA, the binding signal (log2 normalized intensity) was -1.27.
